Test results from the antibiotic and cytotoxicity screens of Wong et al. (2023).
The other results are listed elsewhere or left out.

Key:
HSkMC = human skeletal muscle cells; test: cytotoxicity call (relative viability < 0.9); conditions: 10 µM
HepG2 = test: cytotoxicity call (relative viability < 0.9); conditions: 10 µM
S. aureus RN4220 = test: growth inhibition call (relative growth <= 0.2); conditions: 50 µM

C[C@@H]1CN([C@H](C)CO)C(=O)c2cc(NS(=O)(=O)c3cn(C)cn3)ccc2O[C@H]1CN(C)C(=O)Nc1ccc2c(c1)OCO2
inactive: cytotoxicity call (HSkMC) | cytotoxicity call (HepG2) | growth inhibition call (S. aureus RN4220)

C[C@H]1CN([C@@H](C)CO)S(=O)(=O)c2ccc(-c3ccc(C(=O)N(C)C)cc3)cc2O[C@H]1CN(C)C(=O)C1CCOCC1
inactive: cytotoxicity call (HSkMC) | cytotoxicity call (HepG2) | growth inhibition call (S. aureus RN4220)

O=C(CN1CCOCC1)NCC[C@H]1CC[C@H](NS(=O)(=O)c2ccc(Cl)cc2)[C@H](CO)O1
inactive: cytotoxicity call (HSkMC) | cytotoxicity call (HepG2) | growth inhibition call (S. aureus RN4220)

N[C@@H](CSS(=O)(=O)O)C(=O)O
inactive: cytotoxicity call (HSkMC) | cytotoxicity call (HepG2) | growth inhibition call (S. aureus RN4220)

Cc1noc(C)c1S(=O)(=O)Nc1ccc2c(c1)C(=O)N([C@H](C)CO)C[C@H](C)[C@H](CN(C)C)OCCCC[C@H](C)O2
inactive: cytotoxicity call (HSkMC) | cytotoxicity call (HepG2) | growth inhibition call (S. aureus RN4220)

C[C@@H]1CCCCO[C@@H](CN(C)CC2CC2)[C@@H](C)CN([C@H](C)CO)C(=O)c2cc(NC(=O)Nc3ccccc3)ccc2O1
inactive: cytotoxicity call (HSkMC) | cytotoxicity call (HepG2) | growth inhibition call (S. aureus RN4220)

COc1ccc(S(=O)(=O)Nc2ccc3c(c2)CC(=O)N([C@H](C)CO)C[C@@H](C)[C@H](CN(C)Cc2ccncc2)O3)cc1
inactive: cytotoxicity call (HSkMC) | cytotoxicity call (HepG2) | growth inhibition call (S. aureus RN4220)

C[C@@H]1CN([C@@H](C)CO)C(=O)c2cc(NS(=O)(=O)c3ccc(Cl)cc3)ccc2O[C@H]1CN(C)C(=O)Nc1ccc(C(F)(F)F)cc1
inactive: cytotoxicity call (HSkMC) | cytotoxicity call (HepG2) | growth inhibition call (S. aureus RN4220)

O=C(C[C@H]1C=C[C@@H](NC(=O)Cc2ccccn2)[C@@H](CO)O1)NCCCN1CCOCC1
inactive: cytotoxicity call (HSkMC) | cytotoxicity call (HepG2) | growth inhibition call (S. aureus RN4220)

COc1ccccc1S(=O)(=O)N[C@H]1C=C[C@@H](CC(=O)N2CCOCC2)O[C@H]1CO
inactive: cytotoxicity call (HSkMC) | cytotoxicity call (HepG2) | growth inhibition call (S. aureus RN4220)

C[C@H](CO)N1C[C@H](C)[C@@H](CN(C)C(=O)c2ccc3c(c2)OCO3)Oc2cc(C#Cc3ccccc3F)ccc2S1(=O)=O
inactive: cytotoxicity call (HSkMC) | cytotoxicity call (HepG2) | growth inhibition call (S. aureus RN4220)

Cc1ccc(S[C@]2(C(=O)NC(C)C)CC(=O)N(Cc3cc(C(F)(F)F)cc(C(F)(F)F)c3)[C@@H]2c2ccc(CO)cc2I)cc1
inactive: cytotoxicity call (HSkMC) | cytotoxicity call (HepG2) | growth inhibition call (S. aureus RN4220)

C[C@H](CO)N1C[C@H](C)[C@H](CN(C)Cc2ccc(-c3ccccc3)cc2)Oc2c(NC(=O)Nc3ccc4c(c3)OCO4)cccc2C1=O
inactive: cytotoxicity call (HSkMC) | cytotoxicity call (HepG2) | growth inhibition call (S. aureus RN4220)

C/C=C1\[C@@H](O[C@H]2O[C@@H](CO)[C@@H](O)[C@@H](O)[C@@H]2O)OC=C(C(=O)OC)[C@H]1CC(=O)OC[C@H]1[C@H](C)[C@H](OC(=O)C[C@@H]2C(C(=O)OC)=CO[C@H](O[C@H]3O[C@@H](CO)[C@@H](O)[C@@H](O)[C@@H]3O)/C2=C\C)C[C@@H]1[C@H](CO)COC(=O)C[C@@H]1C(C(=O)OC)=CO[C@@H](O[C@H]2O[C@@H](CO)[C@@H](O)[C@@H](O)[C@@H]2O)/C1=C\C
inactive: cytotoxicity call (HSkMC) | cytotoxicity call (HepG2) | growth inhibition call (S. aureus RN4220)

CCn1[nH]c(N)c2c(=O)[nH]c(=O)cc1-2
inactive: cytotoxicity call (HSkMC) | cytotoxicity call (HepG2) | growth inhibition call (S. aureus RN4220)

O=C(CN1CCOCC1)N[C@H]1CC[C@@H](CCNC(=O)Nc2cc(F)ccc2F)O[C@@H]1CO
inactive: cytotoxicity call (HSkMC) | cytotoxicity call (HepG2) | growth inhibition call (S. aureus RN4220)

CN(C)CC(=O)N1CC(=O)N2[C@H](CO)[C@@H](c3ccc(C#Cc4cccnc4)cc3)[C@H]2C1
inactive: cytotoxicity call (HSkMC) | cytotoxicity call (HepG2) | growth inhibition call (S. aureus RN4220)

Cc1ccc2sc(C)nc2c1
inactive: cytotoxicity call (HSkMC) | cytotoxicity call (HepG2) | growth inhibition call (S. aureus RN4220)

O=C(C[C@H]1CC[C@H](NC(=O)c2cnccn2)[C@H](CO)O1)NCc1ccccc1F
inactive: cytotoxicity call (HSkMC) | cytotoxicity call (HepG2) | growth inhibition call (S. aureus RN4220)

Nc1ccc(C(=O)O)c(O)c1
inactive: cytotoxicity call (HSkMC) | cytotoxicity call (HepG2) | growth inhibition call (S. aureus RN4220)

C[C@@H]1CN([C@H](C)CO)C(=O)c2cccc(NC(=O)Nc3ccc4c(c3)OCO4)c2O[C@@H]1CN(C)Cc1ccc(-c2ccccc2)cc1
inactive: cytotoxicity call (HSkMC) | cytotoxicity call (HepG2) | growth inhibition call (S. aureus RN4220)

NC[C@H]1O[C@H](O[C@@H]2[C@H](O)[C@@H](O[C@H]3O[C@H](CO)[C@@H](O)[C@H](N)[C@H]3O)[C@H](N)C[C@@H]2N)[C@H](O)[C@@H](O)[C@@H]1O
inactive: cytotoxicity call (HSkMC) | cytotoxicity call (HepG2) | growth inhibition call (S. aureus RN4220)

C[C@@H]1CCCCO[C@@H](CN(C)S(=O)(=O)c2ccccc2)[C@H](C)CN([C@@H](C)CO)C(=O)c2cc(NC(=O)CCC(F)(F)F)ccc2O1
inactive: cytotoxicity call (HSkMC) | cytotoxicity call (HepG2) | growth inhibition call (S. aureus RN4220)

Clc1ccc(/N=C/c2ccc(Br)o2)cc1Cl
inactive: cytotoxicity call (HSkMC) | cytotoxicity call (HepG2) | growth inhibition call (S. aureus RN4220)

C[C@H]1CCCCO[C@@H](CN(C)C(=O)Nc2ccccc2)[C@@H](C)CN([C@@H](C)CO)C(=O)c2cc(NC(=O)Nc3ccc4c(c3)OCO4)ccc2O1
inactive: cytotoxicity call (HSkMC) | cytotoxicity call (HepG2) | growth inhibition call (S. aureus RN4220)
